{
  "source": "PubChem BioAssay AID588342",
  "about": "(National Center for Advancing Translational Sciences (NCATS), 2011)",
  "note": "Among all 360,000 compounds or so, about 25,000 (6.9%) were called active. This list was built around the results that the source calls inconclusive (neither active nor inactive); the mix of calls is not that of the screen. Calls follow the shape of the dose curve; as a rule, active = well fitted inhibition curve with a large enough effect; inconclusive = small, poorly fitted or top-dose-only effect; inactive = flat fitted curve, though single readings scatter. Where the call is inconclusive, the potency comes from a doubtful curve fit. Potency is read from the fitted curve at half-maximal effect; tags tell the direction and shape of the fitted curve.",
  "data": [
    {"biological_target": "Luciferin 4-monooxygenase (Photinus pyralis) (UniProt P08659)", "sequence (P08659 whole entry, looked up)": "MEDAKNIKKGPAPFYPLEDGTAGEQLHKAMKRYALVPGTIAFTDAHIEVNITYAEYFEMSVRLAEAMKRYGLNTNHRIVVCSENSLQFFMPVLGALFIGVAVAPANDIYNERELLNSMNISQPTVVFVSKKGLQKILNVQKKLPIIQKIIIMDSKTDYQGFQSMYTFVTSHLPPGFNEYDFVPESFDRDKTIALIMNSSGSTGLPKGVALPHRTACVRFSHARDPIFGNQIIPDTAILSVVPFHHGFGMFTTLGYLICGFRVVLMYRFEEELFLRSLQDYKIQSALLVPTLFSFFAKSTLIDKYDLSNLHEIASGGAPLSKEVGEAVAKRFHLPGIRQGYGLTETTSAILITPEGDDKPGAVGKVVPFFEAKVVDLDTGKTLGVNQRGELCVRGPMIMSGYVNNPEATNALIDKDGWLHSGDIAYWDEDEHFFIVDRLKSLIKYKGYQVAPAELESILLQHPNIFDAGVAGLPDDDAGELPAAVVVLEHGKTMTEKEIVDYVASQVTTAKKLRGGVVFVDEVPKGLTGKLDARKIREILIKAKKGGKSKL", "assay": "qHTS profiling assay for firefly luciferase inhibitor/activator using purifed enzyme and Km concentrations of substrates (counterscreen for miR-21 project); also: nearly all actives have a fitted effect of over 55% in size", "conditions": "purified FLuc, luminescence inhibition; series mostly up to 57.5 µM", "how_it_was_run": "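Purified P. pyralis luciferase (10nM final) with 10uM D-luciferin and 10uM ATP (Km levels) in 50mM Tris acetate pH 7.5, 10mM Mg acetate, 0.01% Tween-20, 0.05% BSA; qHTS 6-point titration, ~60 µM downward; luminescence read.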", "values": [
      {"smiles": "COC(=O)COc1cc2ccccc2cc1C(=O)Nc1ccccc1", "Potency": "active: 9.53 µM"},
      {"smiles": "CCc1ccc(N2CC(C(=O)N/N=C/c3cc([N+](=O)[O-])ccc3O)CC2=O)cc1", "note": "(stereo unspecified)", "Potency": "inconclusive: 23.9 µM [inhibitor, single point]"},
      {"smiles": "COc1ccc(C(=O)NC2CCCN(Cc3ccc(Cl)cc3)C2)c(OC)c1", "note": "(stereo unspecified)", "Potency": "inactive"},
      {"smiles": "Cc1ccc(-c2noc(C3CCCN(C(=O)c4ccccc4Br)C3)n2)o1", "note": "(stereo unspecified)", "Potency": "inconclusive: 23.9 µM [inhibitor, single point]"},
      {"smiles": "O=C(CSc1ncnc2ccccc12)c1ccc2c(c1)OCCO2", "Potency": "active: 3.38 µM"},
      {"smiles": "Cc1cccc(OCC(=O)Nc2ccc3c(c2)nc(CCNC(=O)c2ccco2)n3C)c1", "Potency": "inconclusive: 30.1 µM [inhibitor, partial curve, poor fit]"},
      {"smiles": "Cc1[nH]c2ccccc2c1/C=N/NC(=O)c1cc(-c2cccs2)[nH]n1", "Potency": "active: 15.1 µM"},
      {"smiles": "COc1ccc(/C=N/OC(=O)Nc2ccc(Cl)cc2)c(OC)c1", "Potency": "active: 12 µM"},
      {"smiles": "O=C(Nc1nc(-c2ccccn2)cs1)C1CCCC1", "Potency": "active: 23.9 µM"},
      {"smiles": "Cc1nnc(NC(=O)c2ccc3ccccc3n2)s1", "Potency": "active: 23.9 µM"},
      {"smiles": "O=C(Nc1ccccc1O)c1ccc(C(=O)c2ccccc2)o1", "Potency": "inconclusive: 12 µM [inhibitor, partial curve]"},
      {"smiles": "Cc1cccc(NC(=O)C(=O)NCc2ccccn2)c1", "Potency": "inconclusive: 26.9 µM [inhibitor, partial curve]"},
      {"smiles": "Cc1nc2ccccc2n1CCCOc1ccccc1", "Potency": "active: 10.7 µM"},
      {"smiles": "COc1ccccc1NC(=O)CSc1nnc(CCNC(=O)c2ccc(C)cc2)n1C", "Potency": "active: 15.1 µM"},
      {"smiles": "COc1ccc(-c2csc(NC(=O)CC(NC(C)=O)c3ccccc3)n2)cc1OC", "note": "(stereo unspecified)", "Potency": "inconclusive: 21.3 µM [inhibitor, single point]"},
      {"smiles": "COc1ccc(/C=C2/C(=O)N(c3ccccc3)N=C2C)cc1OC", "Potency": "active: 6.01 µM"},
      {"smiles": "Cc1nnc2sc(-c3ccc(N(C)C)cc3)nn2c1=O", "Potency": "active: 7.57 µM"},
      {"smiles": "CCc1ccc(NC(=O)c2cc(C)on2)cc1", "Potency": "active: 3.01 µM"},
      {"smiles": "COc1ccc(NC(=S)Nc2ccc3nsnc3c2)cc1", "Potency": "inconclusive: 26.9 µM [inhibitor, partial curve]"},
      {"smiles": "COc1cccc(C(=O)NCC(=O)N2CCC(C)CC2)c1", "Potency": "inconclusive: 26.9 µM [inhibitor, single point]"},
      {"smiles": "CCCNc1cc(=S)nc(N)[nH]1", "Potency": "inactive"},
      {"smiles": "COc1ccc(CCNC(=O)CCc2c(C)nc3c(c(C)nn3-c3ccccc3)c2C)c(OC)c1", "Potency": "inactive"},
      {"smiles": "COc1ccccc1C(=O)Nc1nnc(SCc2cc(=O)n3ccc(C)cc3n2)s1", "Potency": "inactive"},
      {"smiles": "COc1ccc2nc(NC(=O)C3CCN(C(=O)c4ccc(F)cc4)CC3)sc2c1", "Potency": "inconclusive: 23.9 µM [inhibitor, partial curve, poor fit]"},
      {"smiles": "COc1cc(OC)c(C(=O)Nc2ccncc2)cc1OC", "Potency": "inconclusive: 26.9 µM [inhibitor, partial curve, poor fit]"},
      {"smiles": "CCCCOc1ccc(C(=O)Nc2cc(C)c(OCC(=O)N3CCOCC3)c(C)c2)cc1", "Potency": "active: 2.13 µM"},
      {"smiles": "Cc1cc(NC(=O)Nc2csc3c2CCCC3)ccc1Br", "Potency": "inconclusive: 8.49 µM [inhibitor, partial curve]"},
      {"smiles": "CN1C(=O)NC(c2ccccc2)C2=C1CN(c1cccc(C(F)(F)F)c1)C2=O", "note": "(stereo unspecified)", "Potency": "inactive"},
      {"smiles": "Cc1c2c(nc3ccccc13)CCC(C(C)(C)C)C2", "note": "(stereo unspecified)", "Potency": "active: 12 µM"},
      {"smiles": "Cc1ccc(NC(=O)CSc2nc3[nH]ncc3c(=O)[nH]2)cc1", "Potency": "inconclusive: 37.9 µM [inhibitor, partial curve, poor fit]"},
      {"smiles": "O=C(O)CCCC(=O)Nc1nc(-c2ccc(F)cc2)cs1", "Potency": "inconclusive: 33.8 µM [inhibitor, partial curve, poor fit]"},
      {"smiles": "COc1cccc(N2CCN(C(=O)c3ccccc3SCC(=O)NCc3ccco3)CC2)c1", "Potency": "inactive"},
      {"smiles": "COc1ccc(-c2nnc(NC(=O)C3CCCO3)s2)cc1", "note": "(stereo unspecified)", "Potency": "active: 12 µM"},
      {"smiles": "CN(CC(=O)N1CCN(c2ccccc2F)CC1)S(=O)(=O)c1cnc[nH]1", "Potency": "inactive"},
      {"smiles": "Cc1noc(/C=C/Nc2ccc(F)cc2F)c1[N+](=O)[O-]", "Potency": "active: 2.13 µM"},
      {"smiles": "COc1ccc(CCN2C(=O)N(c3ccc(F)cc3)C(=O)C2CC(=O)Nc2ccc(F)c(F)c2)cc1", "note": "(stereo unspecified)", "Potency": "inactive"},
      {"smiles": "O=C(NNS(=O)(=O)c1ccc([N+](=O)[O-])cc1)C(=O)Nc1cccc(C(=O)O)c1", "Potency": "active: 16.9 µM"},
      {"smiles": "O=C(/C=C/c1ccc(Cl)cc1)N1CCOCC1", "Potency": "active: 26.9 µM"},
      {"smiles": "Cn1c(-c2sccc2OCc2cccc(C(F)(F)F)c2)n[nH]c1=S", "Potency": "inconclusive: 21.3 µM [inhibitor, single point]"},
      {"smiles": "CCOc1ccc(N2CC(C(=O)Nc3nnc(CC)s3)CC2=O)cc1", "note": "(stereo unspecified)", "Potency": "inactive"},
      {"smiles": "O=C(CSc1n[nH]c(-c2ccccc2Cl)n1)N1CCN(c2ccccc2F)CC1", "Potency": "inconclusive: 30.1 µM [inhibitor, partial curve, poor fit]"},
      {"smiles": "O=C(O)c1ccc(NC(=O)c2cccc(S(=O)(=O)Nc3ccc(C(=O)O)cc3)c2)cc1", "Potency": "inconclusive: 37.9 µM [inhibitor, partial curve, poor fit]"},
      {"smiles": "CN(C)c1ccc(/C=N/OC(=O)Nc2ccccc2)cc1", "Potency": "active: 1.07 µM"},
      {"smiles": "COc1ccc(-c2coc3c2c(C)cc2oc(=O)cc(C)c23)cc1", "Potency": "inactive"},
      {"smiles": "CCc1ccc(Nc2nnc(SCC(=O)c3c(N)n(C4CC4)c(=O)[nH]c3=O)s2)cc1", "Potency": "active: 0.601 µM"},
      {"smiles": "O=C(Nc1ccc2nc(-c3ccco3)c(-c3ccco3)nc2c1)N1CCN(c2ccccn2)CC1", "Potency": "inconclusive: 10.7 µM [inhibitor, partial curve, poor fit]"},
      {"smiles": "Cc1ccc(NC(NC(=O)c2ccccc2[N+](=O)[O-])C(Cl)(Cl)Cl)cc1", "note": "(stereo unspecified)", "Potency": "inactive"},
      {"smiles": "CCCC(=O)O[C@@H]1C[C@@H](C)N(C(=O)c2ccccc2)c2ccc(C)cc21", "Potency": "inactive"},
      {"smiles": "Cc1ccc(Cl)cc1NC(=O)C(C)n1nnc2sc(-c3ccccc3)cc2c1=O", "note": "(stereo unspecified)", "Potency": "inconclusive: 37.9 µM [inhibitor, partial curve, poor fit]"},
      {"smiles": "COC(=O)c1cccc(-n2c(CCC(=O)O)ccc2-c2ccc(OC)cc2)c1", "Potency": "inconclusive: 21.3 µM [inhibitor, single point]"},
      {"smiles": "Fc1ccccc1N=C1NN=C(c2ccccc2)CS1", "Potency": "active: 13.5 µM"},
      {"smiles": "CCOc1ccc(/C=N/NC(=O)c2cc3c(OC)cc(OC)c(OC)c3[nH]2)cc1", "Potency": "inconclusive: 21.3 µM [inhibitor, partial curve]"},
      {"smiles": "c1ccc(C2=NNC(=NCc3ccc4c(c3)OCO4)SC2)cc1", "Potency": "active: 26.9 µM"},
      {"smiles": "COc1ccc(Cn2c(SCc3ccc(C(=O)NC4CCCC4)cc3)nc3ccncc32)cc1", "Potency": "inconclusive: 15.1 µM [inhibitor, partial curve, poor fit]"},
      {"smiles": "O=C(Nc1cccc(S(=O)(=O)N2CCCCC2)c1)c1cc2ccccc2o1", "Potency": "active: 8.49 µM"},
      {"smiles": "O=[N+]([O-])c1ccc(N2CCN(c3ccccn3)CC2)c(Cl)c1", "Potency": "inconclusive: 21.3 µM [inhibitor, single point]"},
      {"smiles": "Cc1nn(-c2ccccc2)c(OC(=O)C(C)C)c1Sc1ccccc1", "Potency": "inconclusive: 10.7 µM [inhibitor, partial curve]"},
      {"smiles": "O=C(CCn1c(=O)oc2ccccc21)Nc1ccc2c(c1)OCCO2", "Potency": "active: 19 µM"},
      {"smiles": "CCSc1nnc2ccc(-c3ccc(OC)c(OC)c3)nn12", "Potency": "inconclusive: 23.9 µM [inhibitor, single point]"},
      {"smiles": "C=CCCC(=O)Nc1nc(C)c(-c2csc(Nc3ccccc3OC)n2)s1", "Potency": "inconclusive: 16.9 µM [inhibitor, partial curve]"},
      {"smiles": "CCOC(=O)C1CCCN(C(=O)c2cc(Nc3ccc(OC)cc3)nc3ccccc23)C1", "note": "(stereo unspecified)", "Potency": "active: 15.1 µM"},
      {"smiles": "CN(CC(=O)Nn1cnnc1)S(=O)(=O)c1ccccc1", "Potency": "inconclusive: 8.49 µM [inhibitor, partial curve, poor fit]"},
      {"smiles": "Cc1ccc(C(O)CN2C3=NCCCN3c3ccccc32)cc1", "note": "(stereo unspecified)", "Potency": "inconclusive: 8.49 µM [inhibitor, partial curve, poor fit]"},
      {"smiles": "Nc1ccc(C(=O)OCC(=O)c2cccc([N+](=O)[O-])c2)cc1", "Potency": "active: 23.9 µM"},
      {"smiles": "COc1cccc(OCCNC(=O)c2ccc(C)cc2)c1", "Potency": "inconclusive: 26.9 µM [inhibitor, single point]"},
      {"smiles": "COc1ccc(/C(C)=N/Nc2cccc(C(=O)O)c2)cc1OC", "Potency": "active: 3.79 µM"},
      {"smiles": "COCCNC(=O)Cn1nc(N2CCN(c3ccccc3OC)CC2)ccc1=O", "Potency": "inactive"},
      {"smiles": "CCCC(=O)Nc1nc(C)c(-c2csc(Nc3ccccc3C)n2)s1", "Potency": "inconclusive: 37.9 µM [inhibitor, partial curve, poor fit]"},
      {"smiles": "O=C(Nc1ccc(F)cc1)C(=O)c1cn(CC(=O)N2CCOCC2)c2ccccc12", "Potency": "active: 2.69 µM"},
      {"smiles": "CC(=O)N1CCN(c2csc3ccc(F)cc3c2=O)CC1", "Potency": "inconclusive: 37.9 µM [inhibitor, partial curve, poor fit]"},
      {"smiles": "COc1ccc(OCc2cc(C(=O)N(C)CC3CCCCO3)no2)c(Cl)c1", "note": "(stereo unspecified)", "Potency": "inconclusive: 23.9 µM [inhibitor, partial curve]"},
      {"smiles": "COc1ccc(NC(=O)Cn2c(=O)n(C(C)C)c(=O)c3oc4ccccc4c32)cc1Cl", "Potency": "inactive"},
      {"smiles": "O=C(CC1C(=O)N(c2ccccc2)C(=O)N1CCC1=CCCCC1)Nc1ccc(F)cc1", "note": "(stereo unspecified)", "Potency": "inconclusive: 15.1 µM [inhibitor, partial curve, poor fit]"},
      {"smiles": "COc1ccc(C(=O)Nc2nc3ccccc3[nH]2)cc1OC", "Potency": "active: 15.1 µM"},
      {"smiles": "CCOc1cc(NC(=S)Nc2cccc(OC)c2)c(OCC)cc1NC(=O)C1CC1", "Potency": "active: 15.1 µM"},
      {"smiles": "CCOC(=O)c1cc2c(C)[nH]c(C)c2cc(C(=O)OCC)c1=O", "Potency": "inconclusive: 37.9 µM [inhibitor, single point]"}
    ]}
  ]
}
